Reference: PubChem BioAssay AID1508642 (National Center for Advancing Translational Sciences (NCATS), 2021)
Among all 43,000 compounds or so, about 200 (0.47%) were called active. Another 12% or so got no clear call; they are omitted. The call rests on the fitted dose curve; in most records, active means well fitted cell-killing curve with a large enough effect; inconclusive means small, poorly fitted or top-dose-only effect, or effect the other way; inactive means flat fitted curve, though single readings scatter. The list shows a part of the results.

Test: Cell viability qHTS assay in S16 Pmp22-F2sN cells; further: nearly all actives have a fitted effect of over 65% in size
Details: S16 Pmp22-F2sN Schwann cells (luciferase reporters placed in the Pmp22 gene) viability, CellTiter-Glo, 24 h; series mostly up to 57.5 µM; activity change, negative = cytotoxicity: at the top concentration
Outline: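 Seed 500-1,000 S16 Pmp22-F2sN cells per well in phenol-red-free DMEM with 10% heat-inactivated FBS; pin-add 23 nL compound; incubate 24 h at 37C; add CellTiter-Glo, wait 15 min protected from light; read luminescence.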
On the % scale 0 is the no-effect control and ±100 the full control effect; potency means the concentration at half of the fitted maximal effect.

SMILES	activity change, negative = cytotoxicity	Potency
COc1ccc(S(=O)(=O)NCC(c2ccc(N(C)C)cc2)N2CCc3ccccc32)cc1F (stereo unspecified)	inactive: -4.91%	–
Cc1cc(C)n2nc(CNS(=O)(=O)c3ccccc3)nc2n1	inactive: 11.9%	–
CCOC(=O)c1ccccc1NC(=O)COC(=O)CC(C)(C)CC1=NS(=O)(=O)c2ccccc2N1	inactive: -26.3%	–
COCCNc1oc(-c2ccc(OC)cc2)nc1C#N	inactive: 17.2%	–
CCOC(=O)Cc1c(C(=O)OCC)nnc2c(-c3ccccc3)c(C)nn12	inactive: 17.5%	–
CC(=O)c1ccc(NC(=O)CC2Oc3ccc(C)cc3NC2=O)cc1 (stereo unspecified)	inactive: 10.8%	–
CCOC(=O)c1cccc(NC(=O)N2CC=C(c3c[nH]c4ccccc34)CC2)c1	inactive: -0.999%	–
CCN(CC)C(=O)Cn1c(=O)n(CCc2ccccc2)c(=O)c2ccccc21	inactive: 10.2%	–
CCCNC(=O)N1[C@H](c2cccs2)[C@@H](C)C(=O)[C@@H](C)[C@@H]1c1cccs1	inactive: -8.06%	–
Cc1cc(Nc2ccc(Br)c(C)c2)n2nc(-c3ccco3)nc2n1	inactive: -18.3%	–
Cc1cccc(Nc2nnc(-c3ccc(C)c(S(=O)(=O)N4CCN(C)CC4)c3)c3ccccc23)c1	inactive: -18.6%	–
Cc1nn2c(=O)cc(COC(=O)c3cccc(NC(=O)c4ccc(F)cc4)c3)nc2s1	inactive: 11.7%	–
Cc1ccc(Cl)cc1NC(=O)Cn1c(=O)n(C(C)C)c(=O)c2oc3ccccc3c21	inactive: 21.5%	–
Cc1cccc(C(C)C)c1NC(=O)c1ccc2c(c1)CCN2S(C)(=O)=O	inactive: -23.9%	–
CC(=O)Nc1cccc(NC(=O)CSc2ccc(-c3sc(-c4ccccc4)nc3C)nn2)c1	inactive: 12.9%	–
O=C(O)CCc1ccc(-c2ccccc2)n1-c1ccc(C(=O)O)cc1	inactive: 12.6%	–
CCn1c(CN2CCC(C)CC2)nc2cc(NC(=O)c3ccc([N+](=O)[O-])cc3)ccc21	inactive: 9.24%	–
CC(C)CCNC(=O)C(=O)Nc1c2c(nn1-c1ccc(Cl)cc1)CSC2	inactive: -9.11%	–
Cc1ccc(-n2nc(-c3ccccc3)c3cnc4cc5c(cc4c32)OCO5)cc1C	inactive: -6%	–
CCN(C(=O)CN1C(=O)COc2ccc(S(=O)(=O)N3CCOCC3)cc21)c1ccc(OC)cc1	inactive: 8.18%	–
O=C(Nc1nnc(S(=O)(=O)N2CCCCC2)s1)c1ccccc1Br	inactive: 4.23%	–
Cc1ccc(NC(=O)c2ccc3c(O)c(S(=O)(=O)c4ccccc4)c(=O)[nH]c3c2)cc1Cl	inactive: -4.53%	–
Cc1ccc(-c2nnc(Nc3ccc(C(=O)N(C)C)cc3)c3ccccc23)cc1S(=O)(=O)N(C)C	inactive: 19.9%	–
COC(=O)c1ccccc1NC(=O)C1CCN(C(=O)N2CC(C)Oc3ccccc32)CC1 (stereo unspecified)	inactive: 1.94%	–

SMILES	activity change, negative = cytotoxicity	Potency
COc1ccc(-c2nc3ccccc3s2)cc1NC(=O)c1ccc(F)cc1	inactive: 10.9%	–
Cc1ccc(OCC(=O)Nc2ccccc2OCc2cc(=O)n3ccccc3n2)cc1C	inactive: 2.35%	–
CC(C)(C)CC(=O)NCC(c1ccc2c(c1)OCO2)N1CCOCC1 (stereo unspecified)	inactive: -10.9%	–
O=C(Nc1cccc(F)c1)c1ccc2c(c1)N(Cc1ccccc1)C(=O)c1ccccc1S2(=O)=O	inactive: 1.83%	–
O=C(COc1ccc(Cl)cc1)OCc1cc(=O)n2nc(C3CC3)sc2n1	inactive: -25.3%	–
CCN(c1ccccc1)S(=O)(=O)c1c(-c2ccc(C)cc2)csc1C(=O)OC	inactive: 2.59%	–
COc1ccccc1C(=O)Nc1ccc2oc(-c3cccc4c(Br)cccc34)nc2c1	inactive: 3.37%	–
CCCN1Cc2cccc(C(=O)Nc3cccc(C(=O)OCC)c3)c2C1=O	inactive: 4.7%	–
CCC1Oc2ccc(Cl)cc2N(CC(=O)NCCc2ccc(Cl)cc2)C1=O (stereo unspecified)	inactive: -0.466%	–
COCCNc1nc(NCc2cccc(Cl)c2)c2cnn(C)c2n1	inactive: -14%	–
C=Cc1ccc(Cn2c(C)c(CNCc3ccccc3C)c(C(=O)O)c2C)cc1	inactive: 3.48%	–
COc1ccccc1CNC(=O)CCn1c(=O)c2cccn2c2cccnc21	inactive: 7.34%	–
O=C(Cc1csc2nc(-c3ccc(F)cc3)cn12)NCc1ccccc1	inactive: 0.0519%	–
O=[N+]([O-])c1cc(-c2nc(-c3ccccc3)no2)ccc1NC1CCCCC1	inactive: 3.64%	–
Cc1ccc(CO)cc1Nc1ncnc2onc(-c3ccc(F)cc3)c12	inactive: 15.2%	–
CCOc1cccc2cc(S(=O)(=O)c3ccccc3F)c(=O)oc12	inactive: 0.407%	–
CCS(=O)(=O)N1CC(=O)N(c2ccc(Cl)cc2)C(C)(C(=O)NC2CCCCC2)C1 (stereo unspecified)	inactive: 5.35%	–
CC(=O)Nc1ccccc1-c1nc2ccccc2n(CC(=O)Nc2cccc(C(F)(F)F)c2)c1=O	inactive: 1.88%	–
COc1ccc(/C=C/C(=O)Nc2nc(-c3cccs3)ns2)cc1OC	inactive: 15.3%	–
CCOc1ccc(CNC(=O)c2ccc3c(c2)nc2n3CCOC2)cc1OC	inactive: 0.191%	–
CCc1cccc(NC(=O)C(Cc2ccccc2)n2cccc2)c1 (stereo unspecified)	inactive: -3.87%	–
COc1ccc(N2CC(NC(=O)c3ccc(S(=O)(=O)N4CCCCC4)cc3)CC2=O)cc1 (stereo unspecified)	inactive: 6.9%	–
CCc1ccc(NC(=O)CN(c2cc(C)cc(C)c2)S(=O)(=O)c2c(C)[nH]c(=O)[nH]c2=O)cc1	inactive: 3.83%	–
CC1=C(C(=O)Nc2ccc(F)cc2F)C2(CCN(C(C)C)CC2)OC1=O	inactive: -0.155%	–

SMILES	activity change, negative = cytotoxicity	Potency
CCCOc1cccc(C(=O)Nc2cc(-c3ccccc3)no2)c1	inactive: -24.9%	–
CC1=C(c2ccc(C(C)C)cc2)S(=O)(=O)N=C1N1CCC(C(=O)NCCc2ccco2)CC1	inactive: -4.26%	–
COc1cccc(-c2nc(SCC(=O)NC3CCCC3)c(-c3ccc(C)cc3)[nH]2)c1	inactive: -7.52%	–
CCN(CC)C(=O)CSc1nc(-c2ccc(C)cc2)nc2c1Cc1c(CO)cnc(C)c1O2	–	active: 10 µM
COc1cccc(NC(=O)CC2Nc3cc(C)c(C)cc3NC2=O)c1 (stereo unspecified)	inactive: -9.92%	–
Cc1ccc(C)c(N2CCN(C(=O)CSCc3ccccc3Cl)CC2)c1	inactive: -16.9%	–
Cc1ccc(CNC(=O)CC2Oc3ccc(Cl)cc3NC2=O)cc1 (stereo unspecified)	inactive: 0.0775%	–
CCOc1ccc(NS(=O)(=O)c2ccc3c4c(cccc24)C(=O)N3)cc1	inactive: -26.8%	–
Cc1cccc(NC(=O)CCS(=O)(=O)c2cc(Br)cc3c2N(C(=O)C2CC2)CC3)c1	inactive: 6.17%	–
COc1ccccc1NC(=O)COc1ccc(-c2nn(C)c(=O)c3ccccc23)cc1	inactive: 20.4%	–
CC(=O)N1c2ccc(S(=O)(=O)Nc3ccc(Cl)cc3C)cc2CC1C (stereo unspecified)	inactive: -20.4%	–
COc1cc(OC)cc(-c2nc3n(n2)C(c2ccccc2)C(C(N)=O)=C(C)N3)c1 (stereo unspecified)	inactive: 2.16%	–
COc1cccc(CNC(=O)c2cc(Sc3cccc(Cl)c3)nc3ccccc23)c1	inactive: 11.3%	–
COc1ccc(-c2c(C)c3ccc(O)c(CN4CCN(CCO)CC4)c3oc2=O)cc1OC	inactive: -0.286%	–
CCOC(=O)c1c(NC(=O)COc2cccc(C)c2C)sc2c1CCC(CC)C2 (stereo unspecified)	inactive: 6.32%	–
Cc1c(C(=O)N2CCOCC2)oc2c1-c1nn(CC(=O)NCc3cccc(Cl)c3)cc1CC2	inactive: 2.7%	–
CCCCN(CC)CCCNC(=O)Cn1ncc2c([nH]c3ccc(C)cc32)c1=O	inactive: 5.95%	–
O=c1c2cn[nH]c2nc(SCc2c(F)cccc2F)n1-c1ccc(Cl)cc1	inactive: 1.5%	–
O=C(Cn1cnc2ccccc2c1=O)NCCC(=O)Nc1ccc(F)cc1	inactive: 8.95%	–
CC(C)COc1ccc(C(=O)Nc2cc(-c3ccccc3)no2)cc1	inactive: -2.49%	–
COc1cccc(N2CCN(S(=O)(=O)c3cc(-c4cc(C)no4)ccc3C)CC2)c1	inactive: 6.42%	–
COc1ccc(N(CC(=O)N2CCN(c3ccc(F)cc3)CC2)S(=O)(=O)c2c(C)noc2C)cc1	inactive: 0.325%	–
CCOc1cccc(C(=O)Nc2nc3c(s2)CC(C(C)(C)C)CC3)c1 (stereo unspecified)	inactive: 1.07%	–
O=C(NCc1ccco1)c1ccc2c(c1)N(Cc1ccc(F)cc1)C(=O)c1ccccc1S2(=O)=O	inactive: -1.57%	–

SMILES	activity change, negative = cytotoxicity	Potency
CCN(C(=O)CSc1nc2ccccc2n1Cc1ccc(F)cc1Cl)c1ccccc1	inactive: -17.8%	–
COc1ccc(CCNC(=O)c2c(C)oc3ncn(C)c(=O)c23)c(OC)c1	inactive: -0.172%	–
CC(=O)Nc1ccc(N(C(=O)Cn2nnc3ccccc32)C(C(=O)NCc2ccccc2)c2ccc(C)cc2)cc1 (stereo unspecified)	inactive: 0.437%	–
CN(C)c1ccc(Nc2ncnc3sc4c(c23)CCCC4)cc1	inactive: -14.9%	–
COc1ccc(CC(=O)NCc2nc3cccnc3n2Cc2ccccc2)cc1	inactive: 14.1%	–
COC(=O)c1ccccc1NC(=O)CCCn1c(=O)c2cccn2c2cccnc21	inactive: 17.8%	–
CCOC(=O)C(Cc1c[nH]c2ccccc12)NC(=O)COc1ccc(CC)cc1 (stereo unspecified)	inactive: 8.24%	–
Cc1cc(NC(=O)CN2CCC(C)CC2)nc2c1c(=O)oc1ccccc12	inactive: 20.1%	–
Cc1ccc(Cl)cc1NC(=O)CN1C(=O)CCc2ccccc21	inactive: -0.298%	–
COc1ccc(C)cc1N(C)C(=O)CCc1nc(-c2ccccc2F)no1	inactive: -8.9%	–
COc1ccccc1CCNC(=O)C(C)Sc1nc(-c2ccccc2)cc(C(F)(F)F)n1 (stereo unspecified)	inactive: -8.02%	–
COc1ccc(C(=O)Nc2nc(-c3nnn(-c4ccc(C(C)C)cc4)c3C)ns2)cc1	inactive: -23.3%	–
Cc1noc(/C=C/c2ccccc2F)c1S(=O)(=O)N1CCC(C(=O)N2CCOc3ccccc32)CC1	inactive: 13.2%	–
COc1ccc(C)cc1NC(=O)Nc1cccc(-c2noc(C)n2)c1	inactive: 11.2%	–
CCc1ccc(NC(=O)Cn2c(=O)n(CCC(=O)NCCc3ccc(Cl)cc3)c(=O)c3ccccc32)cc1	inactive: -6.17%	–
CCCOc1ccc(CNC(=O)c2[nH]c3cc(OC)ccc3c2Sc2ccccc2)cc1	inactive: -0.0375%	–
O=C(Cn1ncn2c(cc3ccccc32)c1=O)NCc1ccc(F)cc1	inactive: 8.8%	–
Cc1ccc(-c2cc(-c3ccccc3)c(C#N)c(SCC(O)CS(=O)(=O)Cc3ccccc3)n2)cc1 (stereo unspecified)	inactive: -6.28%	–
CCC(=O)N1CCc2cc(S(=O)(=O)NC(Cc3ccccc3)C(=O)Nc3ccccc3C)ccc21 (stereo unspecified)	inactive: -1.39%	–
O=S(=O)(c1ccc(Cl)cc1)c1nc(-c2ccco2)oc1SCc1ccccc1F	inactive: -13.2%	–
Cc1cccc(NC(=O)C(=O)NCC(c2ccc3c(c2)OCO3)N2CCN(c3ccccc3)CC2)c1 (stereo unspecified)	inactive: 5.47%	–
O=C(Nc1sc2c(c1C(=O)Nc1ccccc1)CCC2)c1ccc(Br)cc1	inactive: 9.93%	–
CCOCCCNC(=O)C(c1ccccc1)N1Cc2ccccc2C1=O (stereo unspecified)	inactive: 5.9%	–
CC(=O)c1cccc(NS(=O)(=O)c2cc3c(cc2C)n(C)c(=O)c(=O)n3C)c1	inactive: 1.44%	–
